Assay results taken from the supplement of paper PMC8728848.
This is one part of the list.

Assays:
Assay in all cases: glycan array binding signal (z-score within array); higher = stronger binding
Conditions in all cases: glycan notation: IUPAC condensed, linker removed
Gal4S6S(b1-4)GlcNAc = molecular target: Gal4S6S(b1-4)GlcNAc
Summary of the method: (§1)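 Arrays were curated from the Consortium for Functional Glycomics database, 3228 in total, and kept only where the protein sequence was available. Binding is expressed as a within-array Z-score. This score was averaged across arrays of the same protein sequence at different concentrations or buffers and across linkers, and negative values can be read as non-binding.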

Gal6P(b1-4)GlcNAc = molecular target: Gal6P(b1-4)GlcNAc
Summary of the method: as §1

Gal6S(b1-3)GlcNAc = molecular target: Gal6S(b1-3)GlcNAc
Summary of the method: as §1

Gal6S(b1-3)GlcNAc6S = molecular target: Gal6S(b1-3)GlcNAc6S
Summary of the method: as §1

Gal6S(b1-4)Glc = molecular target: Gal6S(b1-4)Glc
Summary of the method: as §1

Gal6S(b1-4)Glc6S = molecular target: Gal6S(b1-4)Glc6S
Summary of the method: as §1

Gal6S(b1-4)GlcNAc = molecular target: Gal6S(b1-4)GlcNAc
Summary of the method: as §1

Gal6S(b1-4)GlcNAc6S = molecular target: Gal6S(b1-4)GlcNAc6S
Summary of the method: as §1

GalNAc(a1-3)Gal = molecular target: GalNAc(a1-3)Gal
Summary of the method: as §1

GalNAc(a1-3)GalNAc = molecular target: GalNAc(a1-3)GalNAc
Summary of the method: as §1

[1] = molecular target: GalNAc(a1-3)GalNAc(b1-3)Gal(a1-4)Gal(b1-4)Glc
Summary of the method: as §1

[2] = molecular target: GalNAc(a1-3)GalNAc(b1-3)Gal(a1-4)Gal(b1-4)GlcNAc
Summary of the method: as §1

GalNAc(b1-3)Gal = molecular target: GalNAc(b1-3)Gal
Summary of the method: as §1

[3] = molecular target: GalNAc(b1-3)Gal(a1-4)Gal(b1-4)GlcNAc
Summary of the method: as §1

[4] = molecular target: GalNAc(b1-3)Gal(a1-4)Gal(b1-4)GlcNAc(b1-3)Gal(b1-4)Glc
Summary of the method: as §1

[5] = molecular target: GalNAc(b1-3)Gal(a1-6)Gal(b1-4)Glc
Summary of the method: as §1

GalNAc(b1-3)GalNAc = molecular target: GalNAc(b1-3)GalNAc
Summary of the method: as §1

GalNAc(b1-3)GlcNAc = molecular target: GalNAc(b1-3)GlcNAc
Summary of the method: as §1

GalNAc(b1-4)Gal(b1-4)Glc = molecular target: GalNAc(b1-4)Gal(b1-4)Glc
Summary of the method: as §1

GalNAc(b1-4)GlcNAc = molecular target: GalNAc(b1-4)GlcNAc
Summary of the method: as §1

[6] = molecular target: GalNAc(b1-4)GlcNAc(b1-2)Man
Summary of the method: as §1

[7] = molecular target: GalNAc(b1-4)GlcNAc(b1-2)Man(a1-3)[GalNAc(b1-4)GlcNAc(b1-2)Man(a1-6)]Man(b1-4)GlcNAc(b1-4)GlcNAc
Summary of the method: as §1

[8] = molecular target: GalNAc(b1-4)GlcNAc(b1-3)GalNAc(b1-4)GlcNAc
Summary of the method: as §1

GalNAc(b1-4)GlcNAc6S = molecular target: GalNAc(b1-4)GlcNAc6S
Summary of the method: as §1

GalNAc(b1-6)GalNAc = molecular target: GalNAc(b1-6)GalNAc
Summary of the method: as §1

GalNAc3S(b1-4)GlcNAc = molecular target: GalNAc3S(b1-4)GlcNAc
Summary of the method: as §1

GalNAc3S(b1-4)GlcNAc3S = molecular target: GalNAc3S(b1-4)GlcNAc3S
Summary of the method: as §1

[9] = molecular target: GalNAc3S(b1-4)[Fuc(a1-3)]GlcNAc
Summary of the method: as §1

GalNAc4S6S(b1-4)GlcNAc = molecular target: GalNAc4S6S(b1-4)GlcNAc
Summary of the method: as §1

GalNAc6S(b1-4)GlcNAc = molecular target: GalNAc6S(b1-4)GlcNAc
Summary of the method: as §1

Glc(a1-4)Glc = molecular target: Glc(a1-4)Glc
Summary of the method: as §1

[10] = molecular target: Glc(a1-4)Glc(a1-4)Glc(a1-4)Glc
Summary of the method: as §1

Glc(a1-6)Glc(a1-6)Glc = molecular target: Glc(a1-6)Glc(a1-6)Glc
Summary of the method: as §1

[11] = molecular target: Glc(a1-6)Glc(a1-6)Glc(a1-6)Glc
Summary of the method: as §1

Glc(b1-4)Glc = molecular target: Glc(b1-4)Glc
Summary of the method: as §1

Glc(b1-6)Glc = molecular target: Glc(b1-6)Glc
Summary of the method: as §1

GlcA(b1-3)Gal = molecular target: GlcA(b1-3)Gal
Summary of the method: as §1

GlcA(b1-3)GlcNAc = molecular target: GlcA(b1-3)GlcNAc
Summary of the method: as §1

GlcA(b1-6)Gal = molecular target: GlcA(b1-6)Gal
Summary of the method: as §1

[12] = molecular target: GlcA3S(b1-3)Gal(b1-4)GlcNAc(b1-2)Man
Summary of the method: as §1

[13] = molecular target: GlcA3S(b1-3)Gal(b1-4)GlcNAc(b1-3)Gal(b1-4)Glc
Summary of the method: as §1

[14] = molecular target: GlcNAc(a1-3)Gal(b1-4)GlcNAc
Summary of the method: as §1

[15] = molecular target: GlcNAc(a1-4)Gal(b1-3)GlcNAc
Summary of the method: as §1

[16] = molecular target: GlcNAc(a1-4)Gal(b1-4)GalNAc
Summary of the method: as §1

[17] = molecular target: GlcNAc(a1-4)Gal(b1-4)GlcNAc
Summary of the method: as §1

B1: OrysaEULS2 (Oryza sativa) (protein)
chain: MVYCRANPNYAMTARNGAVVLAPANPKDEYQHWIKDMRWSTSIKDEEGYPAFALVNKATGQAIKHSLGQSHPVRLVPYNPEVMDESVLWTESRDVGNGFRCIRMVNNIYLNFDAFHGDKYHGGVRDGTDIVLWKWCEGDNQRWKIQPYYILEQKLISEEDLNSAVDHHHHHH
glycan array binding signal (z-score) (Gal4S6S(b1-4)GlcNAc): -0.198 | glycan array binding signal (z-score) (Gal6P(b1-4)GlcNAc): -0.204 | glycan array binding signal (z-score) (Gal6S(b1-3)GlcNAc): -0.164 | glycan array binding signal (z-score) (Gal6S(b1-3)GlcNAc6S): -0.16 | glycan array binding signal (z-score) (Gal6S(b1-4)Glc): -0.2 | glycan array binding signal (z-score) (Gal6S(b1-4)Glc6S): -0.204 | glycan array binding signal (z-score) (Gal6S(b1-4)GlcNAc): -0.157 | glycan array binding signal (z-score) (Gal6S(b1-4)GlcNAc6S): -0.205 | glycan array binding signal (z-score) (GalNAc(a1-3)Gal): -0.2 | glycan array binding signal (z-score) (GalNAc(a1-3)GalNAc): -0.213 | glycan array binding signal (z-score) [1]: -0.208 | glycan array binding signal (z-score) [2]: -0.185 | glycan array binding signal (z-score) (GalNAc(b1-3)Gal): -0.182 | glycan array binding signal (z-score) [3]: -0.182 | glycan array binding signal (z-score) [4]: -0.135 | glycan array binding signal (z-score) [5]: -0.202 | glycan array binding signal (z-score) (GalNAc(b1-3)GalNAc): -0.199 | glycan array binding signal (z-score) (GalNAc(b1-3)GlcNAc): -0.242 | glycan array binding signal (z-score) (GalNAc(b1-4)Gal(b1-4)Glc): -0.178 | glycan array binding signal (z-score) (GalNAc(b1-4)GlcNAc): -0.204 | glycan array binding signal (z-score) [6]: -0.257 | glycan array binding signal (z-score) [7]: 0.022 | glycan array binding signal (z-score) [8]: -0.219 | glycan array binding signal (z-score) (GalNAc(b1-4)GlcNAc6S): -0.166 | glycan array binding signal (z-score) (GalNAc(b1-6)GalNAc): -0.168 | glycan array binding signal (z-score) (GalNAc3S(b1-4)GlcNAc): -0.181 | glycan array binding signal (z-score) (GalNAc3S(b1-4)GlcNAc3S): -0.189 | glycan array binding signal (z-score) [9]: -0.225 | glycan array binding signal (z-score) (GalNAc4S6S(b1-4)GlcNAc): -0.215 | glycan array binding signal (z-score) (GalNAc6S(b1-4)GlcNAc): -0.187 | glycan array binding signal (z-score) (Glc(a1-4)Glc): -0.185 | glycan array binding signal (z-score) [10]: -0.171 | glycan array binding signal (z-score) (Glc(a1-6)Glc(a1-6)Glc): -0.159 | glycan array binding signal (z-score) [11]: -0.196 | glycan array binding signal (z-score) (Glc(b1-4)Glc): -0.182 | glycan array binding signal (z-score) (Glc(b1-6)Glc): -0.144 | glycan array binding signal (z-score) (GlcA(b1-3)Gal): -0.199 | glycan array binding signal (z-score) (GlcA(b1-3)GlcNAc): -0.191 | glycan array binding signal (z-score) (GlcA(b1-6)Gal): -0.194 | glycan array binding signal (z-score) [12]: -0.267 | glycan array binding signal (z-score) [13]: -0.246 | glycan array binding signal (z-score) [14]: -0.212 | glycan array binding signal (z-score) [15]: -0.199 | glycan array binding signal (z-score) [16]: -0.188 | glycan array binding signal (z-score) [17]: -0.201
